From the RNAGym collection of RNA variant scans (doi:10.1093/nar/gkz1192)
Read counts are not given, so values of variants with three or more changes are uncertain.

B1: CPEB3 Ribozyme (parent)
chain: UAACAGGGGGCCACAGCAGAAGCGUUCACGUCGCAGCCCCUGUCAGAUUCUGGUGAAUCUGCGAAUUCUGCUGUAUAUCUC

Variants of: B1
Experiment: self-cleavage, relative activity (ratio to wild type); higher = more cleavage; in vitro, sequencing
How it was run: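 Libraries of CPEB3 self-cleaving ribozyme mutants came from rounds of error-prone PCR and carried barcodes, which DNA sequencing matched to variants. In vitro transcription used T7 RNA polymerase at 37°C for 5 hours, with a further 15 min in DNase I before EDTA stopped the reaction; the ribozymes cleaved during both steps. The RNA was reverse transcribed with template switching and sequenced on Illumina. Relative activity is the cleaved/total read fraction of a variant divided by that of the unmutated ribozyme, averaged over three batches with at least 5 reads.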

Variant | self-cleavage
C11G A45U U60C U67A | 0.03
C11G A47U A75G | 0.27
C11G A56G G70A U78C | 0.09
C11G A57G G63C U80C | 0.46
C11G A65G A77C | 0.05
C11G A65U U69C U72C | 0.09
C11G C12A A57G U58A U60A U72C | 0.09
C11G C12U A13C A18U U25C U72G | 0.1
C11G C12U A20G | 0.48
C11G C12U A57G U80C | 0.09
C11G C14A C27U A45U U80C | 0.09
C11G C14U C37U A56G U80C | 0.5
C11G C17U U25C A45G A57U | 0.04
C11G C17U U26A | 0.13
C11G C17U U76C | 0.43
C11G C23A U31C A35G U49A A56G | 0.05
C11G C23G U26C C79U | 0.07
C11G C23G U41A U43C C79G | 0.22
C11G C23U A35C U72A | 0.07
C11G C23U U49C U72G U80G | 0.04
C11G C27A U48C U72C | 0.24
C11G C27G U43A A56G U78C | 0.05
C11G C29A U48C U72C | 0.12
C11G C29U U31C | 0.06

Variant | self-cleavage
C11G C29U U66A | 0.04
C11G C32U A64G | 0
C11G C34U U60C A64G U67C U69G U76A | 0.03
C11G C34U U66C | 0.06
C11G C34U U78C | 0.08
C11G C37A U43C U54A | 0.09
C11G C38A U51C U80G | 0.07
C11G C38A U60C G73A | 0.09
C11G C38G U76A | 0.07
C11G C39G U72C | 0.19
C11G C40A A45U U60C A65U | 0.03
C11G C44U A65C | 0.09
C11G C59U U69A | 0.16
C11G G16A U31C A35U C68G | 0.04
C11G G16A U41C A56G U78C | 0.08
C11G G16U A21G U48G A75G | 0.04
C11G G16U A28G | 0.28
C11G G19A U25G U41A A45G U78A U80C | 0.31
C11G G19C U26C U48C A56C A65G | 0.03
C11G G19U U31A | 0.09
C11G G22A U25C U41C | 0.1
C11G G22C A28G C34U A65G | 0.05
C11G G24C A35G G63A | 0.07
C11G G24U U26C G33U | 0.06

Variant | self-cleavage
C11G G30A A35U A64G | 0.18
C11G G36A U43G | 0.08
C11G G46U A65G A75C | 0.04
C11G G55A U76C | 0.15
C11G G63U A64U U67C U78A | 0.08
C11G G63U U72A | 0.22
C11G U25A C38A U41C | 0.3
C11G U25A U26C G61A U72C | 0.06
C11G U25A U43C A65G | 0.18
C11G U25A U48C A64G U67A | 0.06
C11G U25A U51A A64G A65G U72C | 0.04
C11G U25C A45U U54C | 0.39
C11G U25C A56U | 0.05
C11G U25C A77G | 0.09
C11G U25C C32U U49C U76C | 0.06
C11G U25C G30A A64G U80C | 0.06
C11G U25C G33A A45G A57G U60A C68U | 0.02
C11G U25C G52A | 0.38
C11G U25C U31A | 0.34
C11G U25C U41A U43C A47G U66C U67C | 0.11
C11G U26A A28G C44U A56G A65C U67C | 0.04
C11G U26A A35G U66C | 0.44
C11G U26A C38U A47G U76A | 0.06
C11G U26A U43A C59A U78C | 0.03

Variant | self-cleavage
C11G U26C A47G U49C U51C U58G | 0.31
C11G U26C A64G U72A | 0.08
C11G U26C C32U U41C | 0.41
C11G U26C C81A | 0.14
C11G U26C U31C U41C | 0.08
C11G U26G A64G A65G U76C | 0.04
C11G U31A A35C U60A U66A | 0.05
C11G U31A C38U | 0.09
C11G U31C A35U U80C | 0.33
C11G U31C A45U | 0.31
C11G U31C G33A | 0.05
C11G U31C G36C U43A U74C | 0.86
C11G U31C U43C U58C G63A A64U | 0.06
C11G U31C U60C U66C | 0.06
C11G U31C U80C | 0.58
C11G U41A A64U | 0.07
C11G U41C A57G | 0.85
C11G U41C U49C U51A | 0.17
C11G U41C U67C | 0.23
C11G U43A U58C | 0.12
C11G U43C U51C U67C U69C | 0.03
C11G U43C U58C | 0.19
C11G U43C U72C | 0.3
C11G U43G A57G U58C A65G A75G A77U | 0.04

Variant | self-cleavage
C11G U43G G73C | 0.11
C11G U48A U54C U78C | 0.07
C11G U48C A57G | 0.49
C11G U48C A57U U69A A75G | 0.07
C11G U49C A57U U76C U78C | 0.13
C11G U49C U67C A77G | 0.05
C11G U49C U80A | 0.14
C11G U51A U80A | 0.29
C11G U51C A64G A65G U72C | 0.07
C11G U51C U60A U80C | 0.18
C11G U54C A64G | 0.18
C11G U54C A65U U66A | 0.07
C11G U54C U76A | 0.24
C11G U58A U80A | 0.3
C11G U60A U72C | 0.32
C11G U69A A75U | 0.26
C11G U69A U72C | 0.27
C11G U69C U80A | 0.32
C11G U69G U80C | 0.34
C11U A13G A28G A64G | 0.22
C11U A13G A64G | 0.38
C11U A13G C29G U41C U67C U69C | 0.04
C11U A13G C38G G53A U58A C68U | 0.04
C11U A13G G30A | 0.38

Variant | self-cleavage
C11U A13G U25C U41C | 0.3
C11U A13G U26A U80C | 0.45
C11U A13G U41C U48C A56U A57U U69C | 0.28
C11U A13G U43C U80C | 0.27
C11U A13G U51A U54C | 0.29
C11U A13U A15G G22U G33A G55A U78C | 0.17
C11U A13U A21G U26C A35G | 0.16
C11U A13U C40G A65G U66C U72A | 0.03
C11U A13U C50U A65G | 0.13
C11U A13U G36U A77G | 0.3
C11U A13U U41A | 0.07
C11U A13U U41A U60A U66C U78C | 0.04
C11U A15C A20G U58C | 0.24
C11U A15C A45U U49A C50G A57G U58C | 0.05
C11U A15G A20G G46A | 0.06
C11U A15G U25C A35U U48C A57U U80C | 0.04
C11U A15G U48C | 0.29
C11U A15G U49C | 0.07
C11U A15G U49C G55U A64U | 0.09
C11U A15U A18U C37A | 0.05
C11U A15U A20G U49A U80A | 0.27
C11U A15U A21G C40G A65G | 0.06
C11U A15U C34G | 0.5
C11U A15U C40G A65G G73A | 0.25

Variant | self-cleavage
C11U A15U U31A A35U U43C A64G A75C | 0.03
C11U A18G A20G A45G | 0.22
C11U A18G A21U U26A A47U | 0.09
C11U A18G A28G G36A U41A A57U U80A | 0.03
C11U A18G C32A | 0.04
C11U A18G C37G U54A U60A A75G C79G | 0.06
C11U A18G G19U U69A | 0.06
C11U A18G G24A U49C | 0.04
C11U A18G U25C G46U G53C A56U U60C | 0.03
C11U A18G U26C C71A | 0.11
C11U A18G U26G U41A U60C | 0.06
C11U A18U A20U A21G U25C C71U | 0.04
C11U A18U A21G C29A U54C | 0.04
C11U A18U A21G U49A A77U | 0.05
C11U A18U G53A A75U | 0.11
C11U A18U U41A U51C A56G | 0.19
C11U A20C C23G A56G A57G | 0.05
C11U A20G A28G A45U U49C | 0.18
C11U A20G A28G C79A | 0.16
C11U A20G A28G U41C | 0.32
C11U A20G A35U A56G U60A A75U U78C | 0.28
C11U A20G U25C A56G A64G | 0.09
C11U A20G U26A U41C A56G A64U | 0.08
